Measured values reported in publication PMC4535766, “Antiprotozoal Activity Profiling of Approved Drugs: A Starting Point toward Drug Repositioning” (PLoS ONE, 2015).
Structures can show the parent of a compound that is named as a salt. Where two headings read alike, the source gives them in different places.

Legend:
[1] = test system: T. b. rhodesiense strain STIB 900, trypomastigotes; experiment: In vitro activity against T. b. rhodesiense, serial drug dilution assay; settings: for IC50: Trypanosoma brucei
Description: (§1) Drug stock solutions (10mg/ml) were in DMSO (100%). […] Selectivity index (SI) was calculated as IC50 L6 cells/IC50 parasite.

[2] = test system: T. cruzi, strain Tulahuen C4, intracellular amastigotes; experiment: microbe, parasite or virus in culture; settings: Trypanosoma cruzi
Description: as §1

P. falciparum strain K1 = experiment: In vitro activity against P. falciparum, serial drug dilution assay; settings: Plasmodium falciparum
Description: as §1

[3] = test system: axenic amastigotes of L. donovani, strain MHOM-ET-67/L82; experiment: In vitro activity against L. donovani axenic amastigotes, serial drug dilution assay; type: cell-based; settings: Leishmania donovani
Description: as §1

[4] = test system: intracellular amastigotes of L. donovani strain MHOM-ET-67/L82; experiment: Activity against Leishmania donovani intracellular amastigotes in mouse peritoneal macrophages; settings: Peritoneal macrophage
Description: After 24 h 1.2 x 10^5 amastigote L. donovani in 100 μl were added. The amastigotes were taken from an axenic culture grown at pH 5.4. Four hours later, the medium containing free amastigote forms was removed and replaced by fresh medium. The next day the medium was replaced by medium with or without a serial drug dilution of seven 3-fold dilution steps covering a range from 30 to 0.04 μg/ml. Parasite growth in the presence of the drug was compared to control wells. After 96 h of incubation, the medium was removed and the slides fixed with methanol for 10 min followed by staining with a 10% Giemsa solution. Infected and non-infected macrophages were counted for the control cultures and those exposed to the serial drug dilutions. The infection rates were determined. The results were expressed as a percentage reduction in parasite burden compared to control wells, and the IC50 was calculated by linear regression analysis. The collection of mouse peritoneal macrophages was done at the Swiss Tropical and Public Health Institute (Basel) according to the rules and regulations for the protection of animal rights ("Tierschutzverordnung") of the Swiss "Bundesamt für Veterinärwesen".

[5] = L. donovani axenic amastigotes, read-out: L. don. axen. IC50
[6] = axenic amastigotes, strain MHOM-ET-67/L82, means of two independent assays, read-out: IC50 L. don. axen.
[7] = 96 h, read-out: IC50 L. don. intracell

**Q.** Which results are given for `Clc1ccc2c(c1)C(N1CCNCC1)=Nc1ccccc1O2` [Amoxapine]?
**A.** IC50 ([1]; read-out: IC50 T. b. rhod.): 1.87 µM; IC50 ([2]; read-out: IC50 T. cruzi): 17.9 µM; IC50 (P. falciparum strain K1; K1, read-out: IC50 P. falc. K1): 1.14 µM

**Q.** Which results are given for `CCN(CC)CCOc1ccc(C(=C(Cl)c2ccccc2)c2ccccc2)cc1` [Clomiphene]?
**A.** IC50 ([1]; read-out: T. b. rhod. IC50): 6.21 µM; IC50 ([2]; read-out: T. cruzi IC50): 11.5 µM; IC50 [3, 5]: 21.6 µM; IC50 (P. falciparum strain K1; K1, read-out: P. falc. IC50): 1.37 µM

**Q.** For `CN(C)CCCN1c2ccccc2CCc2ccc(Cl)cc21` [Clomipramine], which IC50 ([1]; read-out: IC50 T. b. rhod.) is on record?
**A.** The IC50 was 2.06 µM.

**Q.** And the IC50 ([2]; read-out: IC50 T. cruzi)?
**A.** Its IC50 is 20.3 µM.

**Q.** And the IC50 [3, 6]?
**A.** The IC50 was 75.7 µM.

**Q.** And the IC50 (P. falciparum strain K1; K1, read-out: IC50 P. falc. K1)?
**A.** Its IC50 is 1.3 µM.

**Q.** For `Clc1ccccc1C(c1ccccc1)(c1ccccc1)n1ccnc1` [Clotrimazole], which IC50 ([1]; read-out: IC50 T. b. rhod.) is on record?
**A.** The IC50 was 23.7 µM.

**Q.** And the IC50 [3, 6]?
**A.** Its IC50 is 2.23 µM.

**Q.** What about the IC50 (P. falciparum strain K1; K1, read-out: IC50 P. falc. K1) of the same compound?
**A.** Its IC50 is 0.11 µM.

**Q.** How did the IC50 ([1]; read-out: IC50 T. b. rhod.) turn out when `Clc1ccc(COC(Cn2ccnc2)c2ccc(Cl)cc2Cl)cc1` (stereo not shown) [Econazole (Nitrate salt), Econazole] was run?
**A.** Its IC50 is 41.7 µM.

**Q.** What about the IC50 [3, 6] of the same compound?
**A.** The IC50 was 6.15 µM.

**Q.** And the IC50 [4, 7]?
**A.** Its IC50 is 14 µM.

**Q.** And the IC50 (P. falciparum strain K1; K1, read-out: IC50 P. falc. K1)?
**A.** Its IC50 is 0.32 µM.

**Q.** How did the IC50 ([1]; read-out: IC50 T. b. rhod.) turn out when `CNCCC(Oc1ccc(C(F)(F)F)cc1)c1ccccc1` (stereo not shown) [Fluoxetine] was run?
**A.** Its IC50 is 2.01 µM.

**Q.** What about the IC50 ([2]; read-out: IC50 T. cruzi) of the same compound?
**A.** Its IC50 is 19.1 µM.

**Q.** And the IC50 (P. falciparum strain K1; K1, read-out: IC50 P. falc. K1)?
**A.** The IC50 was 1.21 µM.

**Q.** Which IC50 ([1]; read-out: IC50 T. b. rhod.) does the source give for `OCCN1CCN(CCCN2c3ccccc3Sc3ccc(C(F)(F)F)cc32)CC1` [Fluphenazine] here?
**A.** The IC50 was 2.03 µM.

**Q.** What about the IC50 ([2]; read-out: IC50 T. cruzi) of the same compound?
**A.** Its IC50 is 13 µM.

**Q.** What about the IC50 [3, 6] of the same compound?
**A.** Its IC50 is 46.7 µM.

**Q.** Which IC50 ([1]; read-out: IC50 T. b. rhod.) does the source give for `Clc1ccc(COC(Cn2ccnc2)c2ccc(Cl)cc2Cl)c(Cl)c1` (stereo not shown) [Miconazole (Nitrate salt), Miconazole] here?
**A.** Its IC50 is 36.6 µM.

**Q.** What about the IC50 [3, 6] of the same compound?
**A.** The IC50 was 4.39 µM.

**Q.** What about the IC50 [4, 7] of the same compound?
**A.** The IC50 was 10.8 µM.

**Q.** And the IC50 (P. falciparum strain K1; K1, read-out: IC50 P. falc. K1)?
**A.** The IC50 was 0.49 µM.

**Q.** For `CSc1ccc2c(c1)N(CCC1CCCCN1C)c1ccccc1S2` (stereo not shown) [Thioridazine], which IC50 ([1]; read-out: IC50 T. b. rhod.) is on record?
**A.** Its IC50 is 0.53 µM.

**Q.** And the selectivity ratio ([1]; rat, Selectivity index: IC50 Cytotoxicity L6/ IC50 T. b. rhodesiense)?
**A.** The selectivity ratio was 10.

**Q.** What about the IC50 ([2]; read-out: T. cruzi IC50) of the same compound?
**A.** Its IC50 is 5.83 µM.

**Q.** What about the IC50 [3, 5] of the same compound?
**A.** The IC50 was 22.4 µM.

**Q.** What about the IC50 ([4]; read-out: L. don. intracell IC50) of the same compound?
**A.** The IC50 was > 7.74 µM.

**Q.** What about the IC50 (P. falciparum strain K1; K1, read-out: P. falc. IC50) of the same compound?
**A.** Its IC50 is 1.07 µM.
